Source: the supplement of paper PMC11417369
This is one part of the list.

test system: PF3D7_0420300 AP2 domain 1 (GST-tagged); assay: gcPBM binding intensity (ln(normalized median fluorescence intensity)); higher = stronger DNA binding
How it was run: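 Binding intensity is the highest Masliner-normalised natural-log median intensity over replicate spots in either probe orientation. To obtain it, GST-tagged P. falciparum DNA-binding domains made in E. coli were incubated for 1 h on an Agilent 4 × 180k array of primer-extended double-stranded 36-bp intergenic genomic probes plus negative controls. Detection used Alexa488 anti-GST antibody with scanning at 488 nm.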

Row | Sequence | gcPBM binding intensity (ln)
1 | AAATAAATCTTATGCACACAAATAATTAATTAAACA [CACACA_site1693] | 9.43
2 | AGAGTTCTCATATGCACACAAAAAACTTTCATTTAT [CACACA_site45] | 9.3
3 | TAAATAAGCACATACACACATACATACATACATAAA [CACACA_site4017] | 9.87
4 | AACCCCGTGGAAATATGTACATATAAATATATAAAT [XGTACX_site2094] | 9.27
5 | AATATCCACATTAGGAGTACACAGCTAACTGTTTGA [XGTACX_site3357] | 9.21
6 | TTGATTACACTGAAGTGTACATATATATATATATAT [XGTACX_site3532] | 9.35
7 | AAATAATAAAAAAAATGTACACGTAAATATTATATT [XGTACX_site8125] | 9.51
8 | TTTTATATAAAATCGTGTACATACCATTTCCTATTA [XGTACX_site5159] | 9.28
9 | AAAAAAAAAAGAAACACACACATTTGTATATAATAT [CACACA_site2078] | 9.93
10 | CATATAAAAATGTGCACACACACACCCATATATATT [CACACA_site1526] | 10.2
11 | AAAATTAATAAATAAACACACATATATATATATATA [CACACA_site2598] | 9.31
12 | TTAAAAAAATATAATACACACCAAAAATATGCACAT [CACACA_site5209] | 9.8
13 | TAATAATTTATAATAGTGCATTTGATTTTAAAAATA | 8.83
14 | TTTTTATGGTAAATAAAAATATCTCCCTCCTTAATT [CACACA_negctrl_site1352] | 9.04
15 | ATTTACATAAATTGCATATATCGATGTAAATAAATA [CACACA_negctrl_site1150] | 9.1
16 | TCTTTTTAAACTAATAGTACATATATATTAATAAAT [XGTACX_site4217] | 8.99
17 | ATATATATATATATATGTACATATATTTATTTATTG [XGTACX_site6267] | 9.13
18 | CATTTATTTTTGTTCTGTACATAAAGATGAACAAAA [XGTACX_site6797] | 8.81
19 | AAAATAAAATATTTCTGTACTTATAACTATTCTATA [XGTACX_site8007] | 9.14
20 | ATAAAATGATAAATTTGTACACAAAAAAAAAAAAAA [XGTACX_site964] | 9.03
21 | GGGTATACAAATAAACGTACAAACTCATAAAAAAAA [XGTACX_site3191] | 9.43
22 | CATATATAACAATTCTCACACATAAAAAAAAAAAAT [CACACA_site4564] | 9.53

Row | Sequence | gcPBM binding intensity (ln)
23 | AGTGGAATGTATGATTTTCATTCCTTAAAATTTTAA [GTGCAC_negctrl_site521] | 8.94
24 | AATACTAAAAAGTGTACACATACATAAAAAATTGCA [CACACA_site5620] | 9.51
25 | AAGAAAAAAGTTATTAGTACACATTATAATAAAAAG [XGTACX_site3527] | 9.43
26 | TATTGATTTATAAACACACACTCGAAGATGTTTAAC [CACACA_site4760] | 9.34
27 | TAATTTTCTTTTTATCGTTTTTTTTTTTTTTTTTTT [XGTACX_negctrl_site432] | 9.02
28 | TATATATATGTAAATCGTACAAATTATATATATCAT [XGTACX_site2821] | 9.26
29 | TATATCTCATAGTATACACACACACCCACCCACATA [CACACA_site8513] | 10.3
30 | CATTATGTTGTAAATACACACATACATATACATACA [CACACA_site8143] | 9.49
31 | ATAAATATGTAAAAAACATGCAAAAAATTAAAGACA [TGCATGCA_site912] | 9.58
32 | AACGCACATATATTTATGTATATATATATATATATA [GTGCAC_negctrl_site478] | 9.3
33 | GGAAACAAAAAATATATACACACTAAACATAAAAAA [CACACA_site20] | 9.85
34 | TCATAGTAGAAACACACACACACACCCATATATATA [CACACA_site1737] | 10.2
35 | TTATTACATAACAATATACACACTATTGATTAAAGA [CACACA_site2933] | 9.39
36 | TAAAAAAAAAGAAGCTGTACTAAAAAATTTATATTA [XGTACX_site7408] | 8.9
37 | GTTATTAAACAGAAAAGTACATATGTATATTAAAAT [XGTACX_site3724] | 9.42
38 | TTATTAAATAAAATCATGCACACAATATATATTTTA [CACACA_site2496] | 9.2
39 | AAATTCATAAAAATATTTTATAATTATATATAGAAT [TGCATGCA_negctrl_site343] | 9.06
40 | GGGTTTTTTATTAATACATGCATGGAAACGCACTAT [TGCATGCA_site1000] | 9.35
41 | AAGAAAAACAATGAGATAAAGAAGAGAAAATATGTC [TGCATGCA_negctrl_site415] | 9.91
42 | ATATATATATAATTTGTACACACAAATATGCATATA [CACACA_site9136] | 9.45
43 | ATTGAATTCCAACTGGTGCACCAGTAAGATTGAAAA [GTGCAC_site9895] | 9.03
44 | TAAAAAATAAATATATGTACATATTTATTTTTTTTT [XGTACX_site850] | 9.01
